The whole screen tested about 52,000 compounds, of which about 4,300 (8.3%) were called active. Cut-off read from the data, not from the text of the source: active = survival mostly below about 52% (no sharp cut-off); inactive = mostly above about 56%. This is one part of the list. Some structures have more than one record in an assay (separate samples or runs), and their calls can disagree.

In this assay the test system is DeltatarO mutant. The experiment in a line: S. aureus survival, RN4220 and DeltatarO strains – OD600, teichoic acid synthesis inhibitors, primary screen (AID 463173). As to conditions: S. aureus RN4220 wild type/DeltatarO growth, OD600, 18 h, active compounds read low, screened at 18.75 µg/mL (by protocol).
For the compound `CCOc1ccc(NC(=O)c2ccc(F)c(S(=O)(=O)N(Cc3ccc(C(=O)OC)cc3)Cc3ccc(OC)c(OC)c3)c2)cc1`, the survival is active: 47%. Consider `O=C(Cn1cc(C(=O)c2ccco2)c2ccccc21)Nc1ccccc1`, for which the survival was active: 41%. The value for `CCOc1ccc(N2CC(C)Cn3c2nc2c3c(=O)n(Cc3c(F)cccc3Cl)c(=O)n2C)cc1` (stereo unspecified) was inactive: 45%; that for `NC(=O)COc1cccc(-n2cnnn2)c1` was inactive: 63%; that for `O=C(c1ccco1)N1CCN(C2CC(=O)N(c3ccc(F)c(Cl)c3)C2=O)CC1` (stereo unspecified) was inactive: 82%. The value for `CCOC(=O)N1CCN(Cc2nc3cc(NC(=O)c4ccccc4Cl)ccc3n2C(C)C)CC1` was inactive: 70%; that for `COc1ccccc1NC(=O)CSc1cn(CC(=O)N2CCCC2)c2ccccc12` was inactive: 88%; that for `CC(=O)c1cccc(NC(=O)CCc2c(C)nc3nc(CN)nn3c2C)c1` was inactive: 92%.

For the compound `CC(=O)N1CCc2c(sc3c2c(=O)n(-c2ccccc2Cl)c(=O)n3Cc2cccc(C)c2)C1`, the survival was inactive: 74%.

As to `CCC1CCCCN1C(=O)CSc1nnc(-c2ccc(OC)c(OC)c2)o1` (stereo unspecified), the survival is inactive: 71%. For `Cc1ccc2nc(-c3cccs3)c(Nc3ccc4c(c3)OCCO4)n2c1`, the survival was inactive: 99%.

Take `N#Cc1ccc(NC(=O)CNCC2CCCCC2)cc1`: the survival was inactive: 100%. The value for `CCOC(=O)c1ccc(NC(=O)N2CC3CCCN3c3ccccc32)cc1` (stereo unspecified) was inactive: 87%; that for `COc1cccc(NC(=O)c2ccc(CN3CCN(c4ccccc4)CC3)cc2)c1` was inactive: 92%; that for `Cc1ccc(S(=O)(=O)c2cnc(SCC(=O)Nc3ccc4c(c3)OCCO4)[nH]c2=O)cc1C` was inactive: 74%. With `COC(=O)CN1C(C(=O)c2ccccc2)=C(OC(=O)c2ccc(F)cc2)c2ccccc2S1(=O)=O`, the survival was inactive: 56%. In the case of `COc1cccc(-n2c(C)nc3cc(C(=O)O)ccc32)c1`, the survival is inactive: 177%. The same measure for `COc1cc2nc(NC(=O)c3ccc(S(=O)(=O)N4CCc5ccccc54)cc3)sc2cc1OC`: inactive: 64%.

As to `CCN(CCCNC(=O)c1cc2c(=O)n(CC)c3ccccc3c2s1)Cc1ccccc1`, the survival is inactive: 101%.

In the case of `CC1CCCCN1C(=O)c1ccc2c(c1)N(Cc1ccc(F)cc1)C(=O)c1ccccc1S2(=O)=O` (stereo unspecified), the survival is inactive: 69%.

For `COc1cccc(-c2nc3c(C#N)c[nH]n3c2NC2CCCC2)c1OC`, the survival is active: 64%. The same measure for `O=C(CSc1ncc(-c2ccccc2)[nH]1)Nc1cccc(Br)c1`: active: 9%; for `Cc1cc(OCC(=O)N2CCC(c3nc4ccccc4s3)CC2)ccc1Cl`: active: 23%. The same measure for `Cc1ccc(-c2nnn3c2nc(NC2CCC(C)CC2)c2ccccc23)cc1` (stereo unspecified): active: -4%. The same measure for `CCN(Cc1ccccc1)C(c1cccnc1)c1nnnn1Cc1ccccc1` (stereo unspecified): inactive: 86%; for `Cc1cc2n(n1)CCCN2C(=O)Nc1ccc(F)c(Cl)c1`: inactive: 79%. For `CCN(CC)C(=O)c1cnn(-c2ccc(F)cc2)c1-n1cccc1`, the survival was inactive: 73%. The same measure for `COc1ccc(N2CCN(C(=O)c3ccc4c(=O)n(CCc5ccc(OC)c(OC)c5)c(=O)[nH]c4c3)CC2)cc1`: inactive: 104%; for `CCc1ccc(CNC(=O)CSc2cc(=O)n(CC)c3ccccc23)cc1`: inactive: 87%. The same measure for `CCNC(=O)c1c(C)oc2ncn(C)c(=O)c12`: inactive: 91%; for `COc1ccc(-c2nc(N)n(C(=O)c3ccco3)n2)cc1`: inactive: 103%; for `CCc1nn(CC(=O)N(CC)Cc2ccccc2)c(=O)c2cc3occc3n12`: inactive: 54%. The value for `CCOc1ccccc1NC(=O)Cn1c(=O)n(-c2ccccc2)c(=O)c2c1c1cc(C)ccc1n2C` was inactive: 70%; that for `COc1ccc(NC(=O)CN2C(=O)CCc3cc(S(=O)(=O)N4CCOCC4)ccc32)c(OC)c1` was inactive: 80%. On to `CCN(C(=O)CSc1nnc(-c2cc3occc3n2C)n1-c1ccccc1C)c1cccc(C)c1`, for which the survival is inactive: 92%. The value for `COc1ccc(-c2cn3c(n2)sc2cc(C(=O)NCCCN4CCCCC4)ccc23)cc1` was inactive: 69%. With `Cc1ccc(NC(=O)c2cc3c(-c4ccccc4)nn(-c4ccccc4)c3s2)cc1`, the survival is inactive: 50%. The same measure for `O=C(Nc1ccc(Br)cc1F)C(NS(=O)(=O)c1cccc2nsnc12)c1ccccc1` (stereo unspecified): inactive: 78%. For `CCOc1ccccc1NC(=O)Nc1cc(C(=O)NCc2ccc(C)cc2)ccc1N1CCCC1`, the survival was inactive: 83%.

Take `COc1ccc(OC)c(NC(=O)c2c(NCc3ccc(OC)c(OC)c3)sc3c2CCC3)c1`: the survival is inactive: 101%. The same measure for `C/C(=N\NC(N)=O)C1CC(Cc2ccccc2)C(=O)O1` (stereo unspecified): inactive: 57%; for `O=C(C1CCCCC1)N1CCC(n2nnc3ccccc32)CC1`: inactive: 95%. The same measure for `COc1ccc(NC(=O)Cn2c(=O)n(CC(=O)NCCc3ccccc3)c(=O)c3ccccc32)cc1`: inactive: 82%; for `CCn1c(SCc2ccc(C)cc2)nnc1-c1ccc(S(=O)(=O)N2CCOCC2)cc1`: inactive: 100%; for `CCc1ccc(NS(=O)(=O)c2ccc3[nH]cc(C(=O)NCc4ccc(C)cc4)c(=O)c3c2)cc1`: inactive: 65%. Take `Clc1ccc2nc(Nc3ccccc3Cl)nc(-c3ccccc3)c2c1`: the survival was inactive: 75%. The value for `CCOc1ccc(-n2c(=O)c3c4c(sc3n(Cc3cccc(C)c3)c2=O)CCCC4)cc1` was inactive: 57%; that for `Cc1ccc(-c2cn3c(n2)sc2cc(C(=O)NC4CCCc5ccccc54)ccc23)cc1` (stereo unspecified) was inactive: 77%. The same measure for `CC(C)(C)c1ccc(CN(Cc2ccco2)Cc2nnnn2C2CCCCC2)cc1`: inactive: 105%; for `CCOCCCNC(=O)C1CCN(c2cc(C)nc3c(-c4ccc(Cl)cc4)c(C)nn23)CC1`: inactive: 83%.

Consider `CCc1ccc(NCc2cc3cc4c(cc3n(CC(=O)Nc3ccccc3Cl)c2=O)OCO4)cc1`, for which the survival is inactive: 73%. The value for `CCOc1ccc(-c2c(C)nn3c(C)c(C(=O)NCCc4ccccc4)cnc23)cc1OCC` was inactive: 54%. The value for `COc1ccc2c(c1)c1c(c(=O)n(-c3ccc(F)c(Cl)c3)c(=O)n1CC(N)=O)n2C` was inactive: 96%. The value for `CC(=O)Nc1ccc(S(=O)(=O)NC2(C(F)(F)F)NC(=O)N(c3ccccc3F)C2=O)cc1` (stereo unspecified) was inactive: 82%; that for `CCC1CN(C(=O)Nc2cccc(OC)c2)c2ccccc2O1` (stereo unspecified) was inactive: 97%; that for `COc1cccc2c1cc1c(=O)n(CC(=O)O)nc(C)n12` was inactive: 106%.
